The campaign covered roughly 50,000 compounds. About 800 (1.6%) showed an effect of 50% or more. The list shows a part of the results.

In PubChem BioAssay AID1240 (Sanford-Burnham Center for Chemical Genomics, 2008) one finds displacement data, which are given here for 30 molecules.

The target of this test is Bcl-2-like protein 10 (Homo sapiens) (UniProt Q9HD36). In words: TR3 peptide-Bcl-B binding displacers, biochemical primary FP assay, phenotype converters (AID 1240).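 Also: 0% = Bcl-B with tracer peptide and DMSO and 100% = tracer peptide lacking Bcl-B.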 As to conditions: GST-Bcl-B / FITC-TR3 peptide fluorescence polarization; stronger effect = higher value; compound at 3.75 mg/L. (Polarisation of emitted light reports the rotation of a fluorescent probe.)
Sequence of UniProt Q9HD36 (Q9HD36 whole entry, looked up): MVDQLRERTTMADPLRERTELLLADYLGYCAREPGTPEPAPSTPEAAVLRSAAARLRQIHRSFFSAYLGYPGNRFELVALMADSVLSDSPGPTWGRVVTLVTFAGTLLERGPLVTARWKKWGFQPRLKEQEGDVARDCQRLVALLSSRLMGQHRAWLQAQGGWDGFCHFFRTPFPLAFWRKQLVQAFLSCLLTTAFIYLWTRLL
For the molecule `COc1ccc(C2/C(=C(\O)c3ccc(F)cc3)C(=O)C(=O)N2c2ccccn2)cc1OC` (stereo not given), the displacement worked out at 10.5%.

For the molecule `O=C(CC1S/C(=N\N=C\c2cccs2)NC1=O)Nc1ccccc1F` (stereo not given), the displacement was -12.7%.

`O=C(c1cc(F)c(F)cc1Cl)N1CCN(c2ccc([N+](=O)[O-])cc2C(F)(F)F)CC1`: the displacement turned out to be 2.8%.

For `O=C(Nc1ccccc1)c1ccccc1N1C(=O)c2ccccc2C1=O`, the displacement was found to be 3.6%.

Consider `O=C1C(=O)N(CCO)C(c2cccc([N+](=O)[O-])c2)/C1=C(\O)c1ccccc1` (stereo not given), for which the displacement is -12.7%.

In the case of `Nc1nc(/N=C/c2ccc(F)cc2)n[nH]1`, the displacement is -0.9%.

For `Cc1c(NC(=O)c2ccc3c4c(cccc24)CC3)c(=O)n(-c2ccccc2)n1C`, the displacement was found to be 4.5%.

As to `Cc1ccc(C)c(NC(=O)Cn2nc(C)c3ccccc3c2=O)c1`, the displacement is -15.4%.

As for `Cc1ccc(C(C)C)c(OCC(=O)N/N=C/c2cc3c(cc2Cl)OCO3)c1`, the displacement came out at 7.9%.

With `CCOc1c(Br)cc(/C=C2/C(=O)NN(c3ccc(CC)cc3)C2=O)cc1OC`, the displacement came out at 20.5%.

On to `CCOc1ccc(NC(=O)C2C3CCC4C(CCC32)C4(Cl)Cl)cc1` (stereo not given), for which the displacement is -4.6%.

Take `COc1ccc(N(CC(=O)Nc2cccc3ccccc23)S(C)(=O)=O)cc1Cl`: the displacement was 0.5%.

For `CCOc1cc(C=O)ccc1OCc1c(F)cccc1Cl`, the displacement is -6.7%.

`CC(C)C(NC(=O)c1c(Cl)cccc1Cl)C(C)C`: the displacement is 6.5%.

With `CCN(CC)C(=O)COc1ccc(C=O)cc1OC`, the displacement was -8.5%.

On to `CC(NC(=O)CSc1nnc(N)s1)c1ccccc1` (stereo not given), for which the displacement stood at 3.5%.

`CCOc1ccc(/C=N/N2C(=O)C3C(C2=O)C2C=CC3C23CC3)cc1OC` (stereo not given): the displacement came to 10.2%.

For `CC(C)C1/C(=N/O)CC(c2ccccc2)NC1c1ccccc1` (stereo not given), the displacement was 8.4%.

Regarding `Cc1cc(/C=N/NC(N)=O)c(C)n1-c1ccc(Br)cc1`, the displacement was -6.4%.

Consider `CC(=Nc1cccc2ccccc12)c1cc(Cl)ccc1O`, for which the displacement was determined as 13.5%.

`NC(=O)c1cccc(N=Cc2ccc(OCc3ccccc3)cc2)c1`: the displacement is -6.6%.

On to `CN(C)c1cccc(C(=O)Nc2ccc(F)c(Cl)c2)c1`, for which the displacement worked out at 5.8%.

In the case of `CC(C)(C)c1ccc(C(C)(C)C)c(O)c1O`, the displacement was -14.7%.

In the case of `COc1ccc(NC(=O)COc2ccc(Br)cc2)cc1`, the displacement is -7.5%.

For the molecule `COc1cccc(/C=C2\C(=O)NC(=O)N(c3cc(C)cc(C)c3)C2=O)c1`, the displacement was -7.8%.

Take `Cc1csc(NC(=O)c2ccc(-c3ccc(Cl)cc3Cl)o2)n1`: the displacement was -5.8%.

On to `CCOc1ccc(CSc2ncnc(SCc3ccc(OCC)cc3)c2N)cc1`, for which the displacement is -2.1%.

`Cc1ccc(S(=O)(=O)N2c3ccccc3C(Nc3ccccc3)CC2C)cc1` (stereo not given): the displacement was 0.9%.

`COc1ccc(/C=C2\C=C(c3ccc(Cl)cc3)OC2=O)cc1C`: the displacement came out at 0.9%.

For `CC1=C(C#N)c2nc(N)c(C#N)c(C)c2/C1=C\c1cc([N+](=O)[O-])ccc1Cl`, the displacement was determined as 0.6%.
